# According to article PMC4605303:
# Sequences of proteins named here, by UniProt entry; tags and fusion partners are left off. A change or cut given only in a name is not applied to a line headed by its entry.
# UniProt Q8WWY3: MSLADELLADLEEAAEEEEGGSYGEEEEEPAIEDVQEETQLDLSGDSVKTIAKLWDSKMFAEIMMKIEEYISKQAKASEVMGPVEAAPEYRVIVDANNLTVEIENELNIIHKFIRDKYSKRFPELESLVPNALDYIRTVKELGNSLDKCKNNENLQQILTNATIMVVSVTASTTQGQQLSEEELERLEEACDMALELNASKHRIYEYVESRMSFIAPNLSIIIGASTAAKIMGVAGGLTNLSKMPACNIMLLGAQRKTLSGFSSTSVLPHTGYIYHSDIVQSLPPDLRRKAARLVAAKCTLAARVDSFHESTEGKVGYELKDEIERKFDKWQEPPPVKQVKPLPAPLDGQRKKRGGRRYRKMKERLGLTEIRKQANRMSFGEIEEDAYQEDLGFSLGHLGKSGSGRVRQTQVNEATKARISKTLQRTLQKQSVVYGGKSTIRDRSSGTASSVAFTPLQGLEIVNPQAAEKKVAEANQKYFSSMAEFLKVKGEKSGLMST
# UniProt Q9UHK0: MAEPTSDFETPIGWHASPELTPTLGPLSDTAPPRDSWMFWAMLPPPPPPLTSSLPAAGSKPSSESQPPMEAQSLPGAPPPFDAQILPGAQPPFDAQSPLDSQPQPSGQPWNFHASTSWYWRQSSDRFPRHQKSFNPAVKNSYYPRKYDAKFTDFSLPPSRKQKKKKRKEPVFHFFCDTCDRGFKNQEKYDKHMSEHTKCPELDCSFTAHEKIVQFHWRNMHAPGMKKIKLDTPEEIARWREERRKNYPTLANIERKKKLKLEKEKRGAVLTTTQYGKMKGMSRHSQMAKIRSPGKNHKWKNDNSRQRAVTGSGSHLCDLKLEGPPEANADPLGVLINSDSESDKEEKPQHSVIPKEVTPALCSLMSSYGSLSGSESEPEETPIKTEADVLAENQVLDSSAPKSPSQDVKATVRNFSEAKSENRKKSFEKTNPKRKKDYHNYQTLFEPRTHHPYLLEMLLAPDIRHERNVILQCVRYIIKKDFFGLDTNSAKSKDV
# UniProt O14893: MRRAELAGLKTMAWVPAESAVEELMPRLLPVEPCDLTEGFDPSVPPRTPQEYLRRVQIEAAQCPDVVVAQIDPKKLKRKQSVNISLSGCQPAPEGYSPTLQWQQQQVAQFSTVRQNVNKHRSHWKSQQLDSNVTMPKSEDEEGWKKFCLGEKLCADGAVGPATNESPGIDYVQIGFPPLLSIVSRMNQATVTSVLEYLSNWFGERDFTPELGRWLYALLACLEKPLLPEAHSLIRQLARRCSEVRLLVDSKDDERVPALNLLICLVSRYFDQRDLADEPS
# UniProt Q8WXD5: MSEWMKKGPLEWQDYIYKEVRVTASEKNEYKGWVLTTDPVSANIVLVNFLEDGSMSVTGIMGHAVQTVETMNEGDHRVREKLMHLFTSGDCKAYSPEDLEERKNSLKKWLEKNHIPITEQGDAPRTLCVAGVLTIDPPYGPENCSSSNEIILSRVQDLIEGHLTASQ
# UniProt Q9UHI6: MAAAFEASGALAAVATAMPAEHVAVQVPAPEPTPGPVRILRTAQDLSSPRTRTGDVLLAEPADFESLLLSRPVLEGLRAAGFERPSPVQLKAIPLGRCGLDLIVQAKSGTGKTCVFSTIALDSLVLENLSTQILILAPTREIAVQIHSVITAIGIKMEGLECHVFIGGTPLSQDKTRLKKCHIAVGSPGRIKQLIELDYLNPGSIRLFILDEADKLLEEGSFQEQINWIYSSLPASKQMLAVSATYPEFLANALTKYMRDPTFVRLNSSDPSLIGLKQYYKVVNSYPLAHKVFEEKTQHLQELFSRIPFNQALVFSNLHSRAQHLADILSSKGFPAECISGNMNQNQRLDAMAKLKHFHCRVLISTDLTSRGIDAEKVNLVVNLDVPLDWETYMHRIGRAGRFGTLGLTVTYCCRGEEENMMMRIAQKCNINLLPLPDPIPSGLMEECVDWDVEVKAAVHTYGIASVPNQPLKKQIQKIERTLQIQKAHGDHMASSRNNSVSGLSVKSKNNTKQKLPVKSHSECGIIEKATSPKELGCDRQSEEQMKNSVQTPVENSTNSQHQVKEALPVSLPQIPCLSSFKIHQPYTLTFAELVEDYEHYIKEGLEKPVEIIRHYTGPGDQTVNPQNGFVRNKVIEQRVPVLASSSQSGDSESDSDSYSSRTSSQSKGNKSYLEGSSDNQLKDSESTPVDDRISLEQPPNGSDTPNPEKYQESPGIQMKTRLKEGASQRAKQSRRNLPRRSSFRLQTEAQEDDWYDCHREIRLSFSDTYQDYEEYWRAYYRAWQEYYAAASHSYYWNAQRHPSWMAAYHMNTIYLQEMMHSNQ
# UniProt P57678: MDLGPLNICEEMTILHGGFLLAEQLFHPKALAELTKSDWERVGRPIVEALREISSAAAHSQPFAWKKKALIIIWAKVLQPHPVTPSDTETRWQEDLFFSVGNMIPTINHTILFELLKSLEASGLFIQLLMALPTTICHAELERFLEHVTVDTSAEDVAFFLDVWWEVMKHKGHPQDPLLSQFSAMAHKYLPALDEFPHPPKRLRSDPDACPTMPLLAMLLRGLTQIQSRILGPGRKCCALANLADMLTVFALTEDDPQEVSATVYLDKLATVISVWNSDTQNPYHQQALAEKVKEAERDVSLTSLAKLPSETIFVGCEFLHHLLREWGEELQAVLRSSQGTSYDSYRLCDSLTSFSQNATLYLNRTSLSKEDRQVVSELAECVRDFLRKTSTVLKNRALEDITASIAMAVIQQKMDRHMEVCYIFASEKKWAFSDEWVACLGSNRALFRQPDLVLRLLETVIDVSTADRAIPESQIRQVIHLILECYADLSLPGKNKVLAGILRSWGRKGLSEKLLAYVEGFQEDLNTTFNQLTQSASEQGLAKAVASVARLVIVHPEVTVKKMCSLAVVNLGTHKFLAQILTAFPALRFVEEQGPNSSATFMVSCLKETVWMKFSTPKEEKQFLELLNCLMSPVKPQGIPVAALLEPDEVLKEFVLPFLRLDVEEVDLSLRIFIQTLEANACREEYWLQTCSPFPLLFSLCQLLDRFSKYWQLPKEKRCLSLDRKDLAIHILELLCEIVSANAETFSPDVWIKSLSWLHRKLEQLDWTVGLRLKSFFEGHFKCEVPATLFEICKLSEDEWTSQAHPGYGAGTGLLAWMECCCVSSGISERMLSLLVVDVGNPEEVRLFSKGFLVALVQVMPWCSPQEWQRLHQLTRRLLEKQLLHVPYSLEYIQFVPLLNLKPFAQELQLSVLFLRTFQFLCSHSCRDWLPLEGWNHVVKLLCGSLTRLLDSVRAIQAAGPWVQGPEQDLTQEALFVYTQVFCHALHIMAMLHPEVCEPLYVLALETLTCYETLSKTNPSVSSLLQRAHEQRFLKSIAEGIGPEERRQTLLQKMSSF
# UniProt Q16637: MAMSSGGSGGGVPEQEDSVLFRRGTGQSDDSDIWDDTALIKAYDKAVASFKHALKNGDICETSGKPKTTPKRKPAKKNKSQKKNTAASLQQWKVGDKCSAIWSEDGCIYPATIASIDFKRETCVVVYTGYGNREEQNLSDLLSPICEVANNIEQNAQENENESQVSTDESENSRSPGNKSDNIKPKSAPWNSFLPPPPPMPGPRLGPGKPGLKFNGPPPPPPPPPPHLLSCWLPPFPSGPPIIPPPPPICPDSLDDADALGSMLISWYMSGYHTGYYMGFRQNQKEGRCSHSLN
# UniProt Q12464: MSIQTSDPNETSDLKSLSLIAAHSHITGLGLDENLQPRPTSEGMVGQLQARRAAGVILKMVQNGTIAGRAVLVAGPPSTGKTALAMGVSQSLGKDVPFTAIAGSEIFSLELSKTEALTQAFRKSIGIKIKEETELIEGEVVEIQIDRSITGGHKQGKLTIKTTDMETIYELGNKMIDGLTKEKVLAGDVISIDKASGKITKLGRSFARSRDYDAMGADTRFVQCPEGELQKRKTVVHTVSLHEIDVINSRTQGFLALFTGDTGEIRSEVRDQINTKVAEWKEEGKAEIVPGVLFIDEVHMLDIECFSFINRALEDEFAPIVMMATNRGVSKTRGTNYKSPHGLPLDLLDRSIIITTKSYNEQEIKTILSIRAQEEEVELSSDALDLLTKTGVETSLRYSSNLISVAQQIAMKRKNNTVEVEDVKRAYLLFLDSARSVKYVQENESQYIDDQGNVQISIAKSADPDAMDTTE
# UniProt Q9Y265: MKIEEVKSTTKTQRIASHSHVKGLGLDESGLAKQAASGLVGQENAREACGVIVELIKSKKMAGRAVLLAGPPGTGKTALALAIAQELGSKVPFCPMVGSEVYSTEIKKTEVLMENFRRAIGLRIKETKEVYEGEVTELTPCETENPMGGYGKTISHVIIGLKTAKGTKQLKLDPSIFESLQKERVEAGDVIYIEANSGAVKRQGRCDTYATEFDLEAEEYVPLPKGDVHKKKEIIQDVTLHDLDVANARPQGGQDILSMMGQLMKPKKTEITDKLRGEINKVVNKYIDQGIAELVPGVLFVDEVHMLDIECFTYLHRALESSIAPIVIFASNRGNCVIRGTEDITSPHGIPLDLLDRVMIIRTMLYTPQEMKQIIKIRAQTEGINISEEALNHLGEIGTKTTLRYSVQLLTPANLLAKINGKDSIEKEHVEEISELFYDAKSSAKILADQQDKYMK
# UniProt Q03940: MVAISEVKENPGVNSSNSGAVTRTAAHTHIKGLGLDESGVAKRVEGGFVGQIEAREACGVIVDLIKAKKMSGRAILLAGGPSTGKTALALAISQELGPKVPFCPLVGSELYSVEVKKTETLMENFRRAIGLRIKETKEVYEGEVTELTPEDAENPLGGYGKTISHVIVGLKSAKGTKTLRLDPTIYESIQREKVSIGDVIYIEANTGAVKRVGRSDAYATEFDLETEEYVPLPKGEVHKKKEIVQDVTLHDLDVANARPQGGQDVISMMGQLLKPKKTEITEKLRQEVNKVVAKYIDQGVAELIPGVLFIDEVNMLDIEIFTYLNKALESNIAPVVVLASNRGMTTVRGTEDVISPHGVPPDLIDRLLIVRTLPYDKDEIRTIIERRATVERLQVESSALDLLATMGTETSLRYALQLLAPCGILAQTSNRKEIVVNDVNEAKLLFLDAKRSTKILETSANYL
# Where two headings read alike, the source gives them in different places. These are yes or no findings as the source states them, for the method shown. For part of these data: Binding seen in cells or lysates may run through a third protein. Some binding calls cover weakened binding; strength is not graded here. For part of these data: Sequences can lack the tags named with a protein.
# T1: GFP-ZNHIT3 (human) (UniProt Q15649)
# T1 sequence: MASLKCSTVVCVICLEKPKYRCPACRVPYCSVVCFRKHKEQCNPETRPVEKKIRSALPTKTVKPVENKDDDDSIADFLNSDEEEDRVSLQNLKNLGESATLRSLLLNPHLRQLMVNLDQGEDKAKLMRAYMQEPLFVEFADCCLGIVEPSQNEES
# T2: GFP-15.5K (UniProt P55769)
# T2 sequence: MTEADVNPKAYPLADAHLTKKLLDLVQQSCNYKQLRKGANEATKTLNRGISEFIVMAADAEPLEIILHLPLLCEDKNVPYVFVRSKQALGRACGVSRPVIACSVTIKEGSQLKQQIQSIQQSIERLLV
# T3: yeast Prp31p A226P (yeast) (UniProt P49704)
# T3 sequence: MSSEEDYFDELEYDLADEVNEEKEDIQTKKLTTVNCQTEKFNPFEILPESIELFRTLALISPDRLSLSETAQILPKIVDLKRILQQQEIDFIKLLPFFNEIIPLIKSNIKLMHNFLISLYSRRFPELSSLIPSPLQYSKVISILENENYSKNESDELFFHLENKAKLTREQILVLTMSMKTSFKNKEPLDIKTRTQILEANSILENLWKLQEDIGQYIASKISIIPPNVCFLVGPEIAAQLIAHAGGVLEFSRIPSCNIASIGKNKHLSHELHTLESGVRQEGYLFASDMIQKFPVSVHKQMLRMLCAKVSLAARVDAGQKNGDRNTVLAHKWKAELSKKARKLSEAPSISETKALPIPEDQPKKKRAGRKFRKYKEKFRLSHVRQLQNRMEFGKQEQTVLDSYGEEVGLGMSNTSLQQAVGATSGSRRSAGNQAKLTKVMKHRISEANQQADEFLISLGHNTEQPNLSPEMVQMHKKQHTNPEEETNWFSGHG
# T4: yeast Prp31 (Prp31p), wild type (yeast) (UniProt P49704)
# T4 sequence: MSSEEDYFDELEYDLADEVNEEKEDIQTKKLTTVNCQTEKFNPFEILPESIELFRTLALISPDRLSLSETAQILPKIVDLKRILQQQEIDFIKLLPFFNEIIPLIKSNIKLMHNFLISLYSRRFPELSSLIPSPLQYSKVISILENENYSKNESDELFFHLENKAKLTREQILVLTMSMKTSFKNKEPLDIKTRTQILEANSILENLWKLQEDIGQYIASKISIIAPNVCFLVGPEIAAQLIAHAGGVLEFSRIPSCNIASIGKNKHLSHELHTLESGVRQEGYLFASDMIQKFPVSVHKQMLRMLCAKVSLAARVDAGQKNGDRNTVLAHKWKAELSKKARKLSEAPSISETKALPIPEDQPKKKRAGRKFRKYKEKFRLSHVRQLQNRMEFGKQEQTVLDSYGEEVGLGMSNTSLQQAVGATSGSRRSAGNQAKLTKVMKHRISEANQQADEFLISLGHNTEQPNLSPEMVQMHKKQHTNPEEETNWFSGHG
# Key:
# [1] = target: GFP-PRP31, wild type (human) (UniProt Q8WWY3); assay: co-IP; GFP-Trap immuno-precipitation of 293T cells transfected with GFP constructs; extracts untreated or treated with RNase A; western blot with anti-SMN
# [2] = target: T1, GFP-ZNHIT3 (human); assay: as above
# [3] = target: T2, GFP-15.5K; assay: as above
# [4] = target: GFP-NUFIP (293T) (human) (UniProt Q9UHK0); assay: as above
# [5] = target: T3, yeast Prp31p A226P (yeast); assay: two-hybrid; yeast Prp31 (wild type and mutants) against Rsa1, Pih1, Rvb1, Rvb2, Hit1; CG1945 mated with Y187, diploids on -Leu-Trp-His plates containing 1.5 mM 3AT; wild-type strains
# [6] = target: T4, yeast Prp31 (Prp31p), wild type (yeast); assay: as above
# [7] = target: SMN complex, native, affinity purified through Flag-tagged Gemin2 (not stated | human (endogenous in HeLa)) (UniProt O14893)
# [8] = target: GST-NUFIP, recombinant (human) (UniProt Q9UHK0); assay: pull-down; 4 μg GST-NUFIP or GST on glutathione-Sepharose beads, incubated with E. coli total extracts in RSB 200 buffer treated with RNase A, 1 h at 4°C; western blot; only the target purified
# [9] = target: GFP-PRP31, wild type (human) (UniProt Q8WWY3); assay: co-IP; GFP-Trap immuno-precipitation of 293T cells transfected with GFP-PRP31 fusions; HNTG buffer, 2 h at 4°C; western blot of endogenous proteins
# [10] = target: GFP-PRP31 K243A-A246R (human) (UniProt Q8WWY3); assay: as above
# [11] = target: GFP-PRP31 A216P (human) (UniProt Q8WWY3); assay: as above
# [12] = target: mRFP–LacI–Gemin6 (UniProt Q8WXD5); assay: LacI/LacO co-recruitment assay in cells; U2OS LacO cells co-transfected with GFP-NUFIP and an mRFP-LacI fusion; enrichment of GFP at the LacO spot by fluorescence microscopy
# [13] = target: Gemin6, two-hybrid bait (UniProt Q8WXD5); assay: two-hybrid; pACTII-NUFIP as prey, components of the SMN complex as bait; medium lacking histidine with increasing 3-AT
# [14] = target: Gemin3, two-hybrid bait (UniProt Q9UHI6); assay: as above
# [15] = target: Gemin4, two-hybrid bait (UniProt P57678); assay: as above
# [16] = target: T4, yeast Prp31 (Prp31p), wild type (yeast); assay: two-hybrid; as a1 but in a yeast strain deleted for Rsa1 (ΔRSA1); pACTII-yPRP31 against the indicated proteins
# [17] = target: T3, yeast Prp31p A226P (yeast); assay: two-hybrid; yeast Prp31 (wild type and mutants) against Rsa1, Pih1, Rvb1, Rvb2, Hit1; CG1945 mated with Y187, diploids on -Leu-Trp-His plates containing 1.5 mM 3AT; wild-type strains; remark: listed apart in the source
# [18] = target: T4, yeast Prp31 (Prp31p), wild type (yeast); assay: as above; remark: listed apart in the source
# [19] = target: T4, yeast Prp31 (Prp31p), wild type (yeast); assay: two-hybrid; as a1 but in a yeast strain deleted for Pih1 (ΔPIH1); pACTII-yPRP31 against the indicated proteins
# [20] = target: 3xFlag-PRP31 K243A-A246R (human) (UniProt Q8WWY3); assay: co-IP; anti-Flag immuno-precipitation of 293T cells co-transfected with 3xFlag-PRP31 (wild type or mutants) and GFP-15.5K; western blot
# [21] = target: 3xFlag-PRP31 A216P (human) (UniProt Q8WWY3); assay: as above
molecule,measurement,setting,value
"SMN (endogenous, 293T) (from UniProt Q16637 1-294)",binding,[1],binds
same,binding,[2],binds weakly
same,binding,[3],no binding
same,binding,[4],binds
Rvb2 (yeast homolog of RuvBL2) (from UniProt Q12464 1-471),binding,[5],binds
same,binding,[6],binds
"NUFIP, in vitro translated (from UniProt Q9UHK0 1-495)",binding,[7],binds
"Gemin3, recombinant, in E. coli total extract (from UniProt Q9UHI6 1-824)",binding,[8],binds
"RuvBL1 (endogenous, 293T) (from UniProt Q9Y265 1-456)",binding,[9],binds
same,binding,[10],binds
same,binding,[11],binds
"NUFIP (endogenous, 293T) (from UniProt Q9UHK0 1-495)",binding,[9],binds
same,binding,[10],binds
same,binding,[11],binds
GFP-NUFIP (U2OS LacO cells) (from UniProt Q9UHK0 1-495),binding,[12],binds
"NUFIP, two-hybrid prey (pACTII-NUFIP) (from UniProt Q9UHK0 1-495)",binding,[13],binds
same,binding,[14],binds
same,binding,[15],binds
Rvb1 (yeast homolog of RuvBL1) (from UniProt Q03940 1-463),binding,[5],binds
same,binding,[6],binds
"Gemin6, recombinant, in E. coli total extract (from UniProt Q8WXD5 1-167)",binding,[8],binds
"Hit1 (yeast homolog of ZNHIT3) (protein, UniProt P46973 1-164) MVSSAVKCGICRGVDGKYKCPKCGVRYCSLKCYKDAAKHVHKESEQPRAGTEANVEVVNNDKIINSSLAMNKTLKTKAFDDIYQNSAELQELLKYNTVKFHLAKVYRILSSTVNDGSSGKMNSDLQKELAVNYLNTLRYGGIHYNEAIEEFCQILLDKLNAVKK",binding,[16],binds
same,binding,[17],no binding
same,binding,[18],binds
same,binding,[19],binds
"Rsa1 (yeast homolog of NUFIP) (protein, UniProt Q08932 1-381) MNYNNFENSKGDGHSRLPKPTYSGTLSDGYDESKIKRQKTDSAFNAAYSPHMYPNSPYYEGSWNTGYTPQLHHVAPHNQYFHPIQPSTQYNYTSPPNYTENYIPPVHQNISYAPALNLQKWPSSYCENTQALKNDKDYQTSISYEDVAIPTVKEIQLIEKNRGKDTFMNEISPVPSSKDQASAEPTEIPRKDPELANSNAEDDHNNLGLEDDDRDEQLESEGLGKVVLVPGTSIALITDEDVKKWREERKKMWLLKISNNKQKHMQEMGIKEDELKSQPSIFKESRKEKQFIQSIQNQVQRGNPKIDLNLKLIQREFANENSQLLDFIRELGDVGLLEYELSQQEKDVLFGSSEDNNKNHYKPNYKNRKPNLSRANFTRNK",binding,[17],binds
same,binding,[18],binds
"GFP-15.5K (protein, UniProt P55769 1-128) MTEADVNPKAYPLADAHLTKKLLDLVQQSCNYKQLRKGANEATKTLNRGISEFIVMAADAEPLEIILHLPLLCEDKNVPYVFVRSKQALGRACGVSRPVIACSVTIKEGSQLKQQIQSIQQSIERLLV",binding,[20],no binding
same,binding,[21],binds
"ZNHIT3 (endogenous, 293T) (protein, UniProt Q15649 1-155) MASLKCSTVVCVICLEKPKYRCPACRVPYCSVVCFRKHKEQCNPETRPVEKKIRSALPTKTVKPVENKDDDDSIADFLNSDEEEDRVSLQNLKNLGESATLRSLLLNPHLRQLMVNLDQGEDKAKLMRAYMQEPLFVEFADCCLGIVEPSQNEES",binding,[9],binds
same,binding,[10],binds
same,binding,[11],binds
"15.5K, recombinant, in E. coli total extract (protein, UniProt P55769 1-128) MTEADVNPKAYPLADAHLTKKLLDLVQQSCNYKQLRKGANEATKTLNRGISEFIVMAADAEPLEIILHLPLLCEDKNVPYVFVRSKQALGRACGVSRPVIACSVTIKEGSQLKQQIQSIQQSIERLLV",binding,[8],binds
